The other results are listed elsewhere or left out.
B1: PhoQ; a variant is named by its letters at X, in order, P23837 (parent)
chain: MKKLLRLFFPLSLRVRFLLATAAVVLVLSLAYGMVALIGYSVSFDKTTFRLLRGESNLFYTLAKWENNKLHVELPENIDKQSPTMTLIYDENGQLLWAQRDVPWLMKMIQPDWLKSNGFHEIEADVNDTSLLLSGDHSIQQQLQEVREDDDDAEMTHSVAVNVYPATSRMPKLTIVVVDTIPVELKSSYMVWSWFIYVLSANLLLVIPLLWVAAWWSLRPIEALAKEVRELEEHNRELLNPATTRELTSLVRNLNRLLKSERERYDKYRTTLTDLTHSLKTPLXXLQXXLRSLRSEKMSVSDAEPVMLEQISRISQQIGYYLHRASMRGGTLLSRELHPVAPLLDNLTSALNKVYQRKGVNISLDISPEISFVGEQNDFVEVMGNVLDNACKYCLEFVEISARQTDEHLYIVVEDDGPGIPLSKREVIFDRGQRVDTLRPGQGVGLAVAREITEQYEGKIVAGESMLGGARMEVIFGRQHSAPKDE

Variants of: B1
Experiment: enrichment ratio after two sorts for PhoP signalling (ratio (wild type AVST 3.29)); higher = more functional
Settings: with PhoP (E. coli)

Variant	enrichment ratio
YISG	0.553
QVRF	≤ 0.25
QKSR	≤ 0.25
HSFR	≤ 0.25
MFDG	≤ 0.25
WDNI	≤ 0.25
MLHL	≤ 0.25
QYAR	≤ 0.25
INPA	≤ 0.25
PLAV	≤ 0.25
KYNH	≤ 0.25
HGYA	≤ 0.25
WIWM	≤ 0.25
FYCN	≤ 0.25
TANQ	5.01
PEQR	≤ 0.25
MLVQ	≤ 0.25
YAAN	≤ 0.25
RRMW	≤ 0.25
RMMS	≤ 0.25
KIAT	≤ 0.25
RETE	≤ 0.25
PWQA	≤ 0.25
VMYL	≤ 0.25

Variant	enrichment ratio
DLMT	≤ 0.25
TLFG	≤ 0.25
KVMG	≤ 0.25
NLIL	≤ 0.25
VNSE	≤ 0.25
ERTQ	≤ 0.25
MIIC	≤ 0.25
WEDS	≤ 0.25
EEYF	≤ 0.25
IMHT	≤ 0.25
EDEH	≤ 0.25
YHGL	≤ 0.25
PVEN	≤ 0.25
AVPV	0.48
MICP	≤ 0.25
RNWV	≤ 0.25
DFRV	≤ 0.25
TSSF	9.67
SLCG	6.01
AWIE	≤ 0.25
LQTQ	≤ 0.25
SRHN	≤ 0.25
RMGF	≤ 0.25
TNHL	≤ 0.25

Variant	enrichment ratio
YWHE	≤ 0.25
WCWK	≤ 0.25
HGTR	≤ 0.25
FPKF	≤ 0.25
FWEC	≤ 0.25
RGFQ	≤ 0.25
WQAK	≤ 0.25
PAKQ	≤ 0.25
TDHN	≤ 0.25
LEAH	0.895
WYMP	≤ 0.25
VTRW	≤ 0.25
HWLV	≤ 0.25
PVDS	≤ 0.25
PDQE	≤ 0.25
SYWW	≤ 0.25
LMNY	≤ 0.25
TRFE	≤ 0.25
RKSS	≤ 0.25
PLNT	≤ 0.25
MIYQ	4.79
NGFP	≤ 0.25
RYVF	≤ 0.25
SWYM	≤ 0.25

Variant	enrichment ratio
MHDR	≤ 0.25
CLVL	≤ 0.25
TYEN	≤ 0.25
QIRC	≤ 0.25
YNML	13.9
EPCR	≤ 0.25
GDRI	≤ 0.25
ASTK	≤ 0.25
FVHT	≤ 0.25
YWNN	≤ 0.25
FCMA	5.8
GDLN	≤ 0.25
VRMY	0.937
TGYN	4.73
QKPH	≤ 0.25
QHVT	≤ 0.25
AAAK	≤ 0.25
MEYP	≤ 0.25
EMQF	≤ 0.25
HMPK	≤ 0.25
GGRD	≤ 0.25
AENI	≤ 0.25
HQLE	≤ 0.25
QNCL	≤ 0.25

Variant	enrichment ratio
FWSQ	≤ 0.25
INQC	≤ 0.25
MQQS	≤ 0.25
GWAI	≤ 0.25
PPCE	≤ 0.25
YCFM	≤ 0.25
IFPP	≤ 0.25
EDPF	≤ 0.25
SDQS	≤ 0.25
EDHI	≤ 0.25
WGIN	≤ 0.25
VFCQ	≤ 0.25
SEDG	≤ 0.25
RTAG	≤ 0.25
PEFE	≤ 0.25
TWYF	≤ 0.25
WFWK	≤ 0.25
RNRM	≤ 0.25
YFMV	≤ 0.25
NMAY	≤ 0.25
PPRS	≤ 0.25
AQGK	≤ 0.25
FGHE	≤ 0.25
QHPD	≤ 0.25

Variant	enrichment ratio
ICTS	≤ 0.25
PRHP	0.827
ERYA	≤ 0.25
HQAW	≤ 0.25
IQWC	≤ 0.25
KIIM	≤ 0.25
IINR	≤ 0.25
HRCA	≤ 0.25
DREH	≤ 0.25
HIVS	2.31
MEPK	≤ 0.25
DMCE	≤ 0.25
NMIP	≤ 0.25
MPRR	≤ 0.25
SIAN	22.8
WHTR	≤ 0.25
HSAQ	≤ 0.25
PVSN	0.289
LTMK	≤ 0.25
RTNL	≤ 0.25
TDHS	≤ 0.25
FPFA	≤ 0.25
EVMD	≤ 0.25
GSRD	≤ 0.25

Variant	enrichment ratio
VFEQ	≤ 0.25
SWSC	≤ 0.25
DMWI	≤ 0.25
IMKD	≤ 0.25
SDWE	≤ 0.25
LAQH	≤ 0.25
RFEH	≤ 0.25
TDDH	≤ 0.25
QNRK	≤ 0.25
LIGC	≤ 0.25
IKLN	≤ 0.25
VAVW	≤ 0.25
FWQY	≤ 0.25
HMWH	≤ 0.25
ILPL	≤ 0.25
EQVS	≤ 0.25
YRYH	≤ 0.25
HKNY	≤ 0.25
SDQQ	≤ 0.25
PPML	≤ 0.25
LHEY	≤ 0.25
DMPA	≤ 0.25
KENL	≤ 0.25
KMWT	≤ 0.25

Variant	enrichment ratio
HVSP	≤ 0.25
FTWL	≤ 0.25
ESVT	≤ 0.25
NGMS	≤ 0.25
WVYV	≤ 0.25
LDQV	≤ 0.25
EGSF	≤ 0.25
MDAA	≤ 0.25
MMLH	≤ 0.25
EHWR	≤ 0.25
AAMS	1.14
YNHA	≤ 0.25
VIER	≤ 0.25
RGME	≤ 0.25
RWNR	≤ 0.25
TFAN	≤ 0.25
EHAY	≤ 0.25
EVVK	≤ 0.25
AKPW	≤ 0.25
PDHQ	≤ 0.25
DYIC	≤ 0.25
YWVD	≤ 0.25
FRMY	≤ 0.25
MWGF	≤ 0.25

Variant	enrichment ratio
VNTA	≤ 0.25
KVIA	≤ 0.25
HAVF	≤ 0.25
TIAY	≤ 0.25
KICF	≤ 0.25
NGRC	≤ 0.25
NQGQ	≤ 0.25
FGLM	5.23
DSVN	≤ 0.25
SCRD	≤ 0.25
WPVR	≤ 0.25
DCMN	≤ 0.25
YYCQ	≤ 0.25
EADA	≤ 0.25
DHYG	≤ 0.25
MTHQ	1.88
PFFP	≤ 0.25
ERNI	1.92
WPPM	≤ 0.25
LIRR	≤ 0.25
WQVA	≤ 0.25
FHRR	≤ 0.25
QLNL	≤ 0.25
KGME	≤ 0.25

Variant	enrichment ratio
ERPS	≤ 0.25
SFNI	≤ 0.25
RRAI	≤ 0.25
MHPP	≤ 0.25
LFYY	≤ 0.25
LFKK	≤ 0.25
MMDF	≤ 0.25
NRAK	≤ 0.25
DWER	≤ 0.25
RGHK	≤ 0.25
SSVE	6.96
VNML	14.6
TRVD	≤ 0.25
APNG	≤ 0.25
WKRC	≤ 0.25
CLCS	≤ 0.25
LHNE	≤ 0.25
HFLT	≤ 0.25
ERTC	≤ 0.25
YQCL	≤ 0.25
VWKI	≤ 0.25
AQGN	6.95
GTME	≤ 0.25
LCCR	≤ 0.25

Variant	enrichment ratio
WANG	≤ 0.25
CAFP	≤ 0.25
SRVM	9.78
EFAT	≤ 0.25
ANPP	≤ 0.25
GQGD	≤ 0.25
HTWP	≤ 0.25
FHAC	≤ 0.25
FPCL	≤ 0.25
WSSM	≤ 0.25
SEFS	7.06
DFAG	≤ 0.25
RPYQ	≤ 0.25
VHFN	≤ 0.25
KAVP	≤ 0.25
QIKL	≤ 0.25
PEVQ	≤ 0.25
RYWT	≤ 0.25
ISPE	≤ 0.25
EEFD	≤ 0.25
LDWC	≤ 0.25
AYCS	≤ 0.25
PNGD	≤ 0.25
ANPN	≤ 0.25

Variant	enrichment ratio
IMCW	≤ 0.25
ATFL	≤ 0.25
FVTW	≤ 0.25
VDKD	≤ 0.25
AQVF	7.77
VDKK	≤ 0.25
WHTI	≤ 0.25
VTSN	≤ 0.25
HLVM	≤ 0.25
NWTH	≤ 0.25
RALD	≤ 0.25
SRLF	≤ 0.25
WKIV	≤ 0.25
YTMD	≤ 0.25
NASC	≤ 0.25
RAHS	≤ 0.25
LFEG	≤ 0.25
QTSP	≤ 0.25
SPPE	≤ 0.25
KQKT	≤ 0.25
NYHM	≤ 0.25
WIWI	≤ 0.25
RARQ	≤ 0.25
GMFD	≤ 0.25

Variant	enrichment ratio
ADWP	≤ 0.25
NYFK	≤ 0.25
KPAV	≤ 0.25
DRND	≤ 0.25
PGYT	≤ 0.25
NQVC	≤ 0.25
NGKA	≤ 0.25
DNRQ	≤ 0.25
NNYV	≤ 0.25
SMDK	≤ 0.25
PFGE	≤ 0.25
IHEC	≤ 0.25
HPFC	≤ 0.25
YFKW	≤ 0.25
HYNL	≤ 0.25
MLNT	≤ 0.25
EYAN	≤ 0.25
SATG	9.7

— a collection of fitness landscapes (doi:10.1126/science.1257360)
